Paper PMC4336329 (PLoS ONE, 2015)
Among all 310,000 compounds or so, about 14,000 (4.5%) showed an effect of 50% or more. The effect is printed as a negative number. This is one part of the list.

Target: human ether-à-go-go-related gene (hERG) potassium channel (human, UniProt Q12809)
Assay: primary screen, population patch clamp on CHO cells stably expressing hERG
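Further: peak tail current of the secondary pulse compared with the same well before compound.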

Chain of human ether-à-go-go-related gene (hERG) potassium channel (Q12809 whole entry, looked up): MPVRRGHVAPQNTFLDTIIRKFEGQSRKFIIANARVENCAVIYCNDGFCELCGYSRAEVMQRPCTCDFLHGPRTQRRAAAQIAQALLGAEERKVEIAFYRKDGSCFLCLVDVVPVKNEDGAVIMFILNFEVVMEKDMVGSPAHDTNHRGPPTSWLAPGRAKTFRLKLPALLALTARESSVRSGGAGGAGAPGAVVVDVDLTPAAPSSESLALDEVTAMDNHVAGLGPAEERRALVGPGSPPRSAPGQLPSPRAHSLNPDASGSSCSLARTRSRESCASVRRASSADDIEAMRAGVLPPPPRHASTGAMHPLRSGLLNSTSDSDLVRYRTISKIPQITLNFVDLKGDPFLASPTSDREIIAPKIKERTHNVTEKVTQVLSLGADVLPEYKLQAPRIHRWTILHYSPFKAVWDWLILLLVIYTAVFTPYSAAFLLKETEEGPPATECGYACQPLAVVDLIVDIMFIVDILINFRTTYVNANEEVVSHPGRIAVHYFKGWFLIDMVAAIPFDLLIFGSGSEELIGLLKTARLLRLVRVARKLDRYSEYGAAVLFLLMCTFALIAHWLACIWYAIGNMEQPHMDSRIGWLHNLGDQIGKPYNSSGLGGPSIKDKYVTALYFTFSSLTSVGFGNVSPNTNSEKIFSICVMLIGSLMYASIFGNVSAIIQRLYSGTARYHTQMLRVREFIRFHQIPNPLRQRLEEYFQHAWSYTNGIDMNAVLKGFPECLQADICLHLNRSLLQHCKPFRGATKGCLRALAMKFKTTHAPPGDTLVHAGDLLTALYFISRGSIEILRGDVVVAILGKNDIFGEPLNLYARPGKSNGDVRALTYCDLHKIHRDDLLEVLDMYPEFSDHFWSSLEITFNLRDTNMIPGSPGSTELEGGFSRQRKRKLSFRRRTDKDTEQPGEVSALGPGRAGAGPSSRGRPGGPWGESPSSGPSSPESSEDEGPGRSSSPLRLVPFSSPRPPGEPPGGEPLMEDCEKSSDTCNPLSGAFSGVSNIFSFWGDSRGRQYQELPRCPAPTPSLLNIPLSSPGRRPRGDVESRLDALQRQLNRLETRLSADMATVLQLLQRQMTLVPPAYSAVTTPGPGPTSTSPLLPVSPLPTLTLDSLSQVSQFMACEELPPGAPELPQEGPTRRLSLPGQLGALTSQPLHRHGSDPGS

| SMILES | hERG current change (%, negative = inhibition) at 10uM |
| --- | --- |
| O=C(/C=C/c1ccco1)NC(=S)Nc1ccc(Cl)cn1 | 4.03% |
| Cc1ccc(N2CC(C(=O)Nc3nnc(SCC(N)=O)s3)CC2=O)cc1C (stereo not shown) | 18.5% |
| NS(=O)(=O)c1ccc(NC(=O)COC(=O)CCc2nc3ccccc3c(=O)[nH]2)cc1 | 1.4% |
| Cc1cccc(N(CC(=O)Nc2ccc(-c3nc4ccc(C)cc4s3)cc2)S(C)(=O)=O)c1 | 17.4% |
| C=CCNCCOCCOc1ccc(C)cc1Br.O=C(O)C(=O)O | -8.74% |
| O=C(Nc1ccc(Cl)cc1)C1CCCC1 | 5.89% |
| CC(=O)c1cc(-c2ccc(F)cc2)n(CCC(=O)Nc2cccnc2)c1C | 6.38% |
| Cc1cccc(NC(=O)CCCN2C(=O)C3CC=CCC3C2=O)c1 (stereo not shown) | -3.87% |
| COc1ccc2cc(CN(CCc3ccccc3)Cc3nnnn3CC3CCCO3)c(=O)[nH]c2c1 (stereo not shown) | -31.3% |
| Cc1cc(-c2ccc(S(=O)(=O)N3CCN(c4cccc(C(F)(F)F)c4)CC3)s2)on1 | 8.72% |
| CCC(C)NC(=O)C1CCN(C(=O)COc2ccc3c4c(c(=O)oc3c2C)CCCC4)CC1 (stereo not shown) | 8.37% |
| O=C(NCCc1ccccc1)c1cccnc1 | 7.59% |
| COc1ccc(CCNC(=O)C2CCN(C(=O)c3ccc(Cl)cc3)CC2)cc1 | -12.8% |
| C/C(=N\NC(=O)c1csc(C)c1C)c1ccc(Cl)s1 | -0.674% |
| Cc1cc(C)cc(NC(=S)N(CCN(C)C)Cc2cccs2)c1 | -25.1% |
| CN(C)C=O.O=C(/C=C/c1cccc(F)c1)Nc1ccc(S(=O)(=O)Nc2ncccn2)cc1 | -9.37% |
| O=C(N1CCOCC1)C12CC3CC(C1)CC(c1ccccc1)(C3)C2 | -14% |
| COC(=O)Nc1ccc(Cc2ccncc2)cc1 | 12.6% |
| O=C(COC(=O)c1ccc(Oc2ccccc2)cc1)Nc1nnc(-c2ccccc2)o1 | -0.509% |
| O=C(O)CSc1nnc(-c2cccc(S(=O)(=O)N3CCCCC3)c2)o1 | 18.7% |
| Cc1c(NC(=O)CC(C)C)c(=O)n(-c2ccccc2)n1C | 13.7% |
| Cc1ccc(S(=O)(=O)CCC(=O)Nc2ccccc2Br)cc1 | 10.6% |
| Cc1ccc(S(=O)(=O)NCC2CCC(C(=O)N3CCN(C)CC3)CC2)cc1 (stereo not shown) | 9.68% |
| O=C(CCC(=O)NC12CC3CC(CC(C3)C1)C2)NC1CCCCC1 | 11.7% |
| Cc1ccc(C)c(C(=O)OCC(=O)Nc2cccc(S(=O)(=O)NC3=NCCCCC3)c2)c1 | -17.5% |
| O=C(Cc1ccc(Cl)cc1)Nc1ccccc1C(=O)N1CCCC1 | -5.15% |
| O=C(CSc1nnc(CNC(=O)c2ccccc2)o1)Nc1nccs1 | 13.4% |
| COc1ccc(S(=O)(=O)N2CCN(C3CCN(Cc4ccccc4)CC3)CC2)cc1 | -59.4% |

| SMILES | hERG current change (%, negative = inhibition) at 10uM |
| --- | --- |
| Cl.O=C1CSC(c2cccc([N+](=O)[O-])c2)N1CCN1CCCCC1 (stereo not shown) | -21.4% |
| CCOC(=O)Nc1nc(-c2ccccc2)c(C(=O)c2ccc(Cl)cc2)s1 | 4.34% |
| CC(NC(=O)Nc1ccc(Cl)cc1)C1CCCO1 (stereo not shown) | 7.05% |
| CCC(C)NC(=O)CN(C)S(=O)(=O)c1ccc2c(c1)c(=O)n(C)c(=O)n2C (stereo not shown) | -6.34% |
| Cc1c(Cl)cccc1Nc1nc(N)nc(CN2CCCCCC2)n1 | -74.6% |
| CCOCCCn1c(=N)c(S(=O)(=O)c2ccc(C)cc2)cc2c(=O)n3cc(C)ccc3nc21 | 11.6% |
| CCc1ccc(NC(=O)/C(C#N)=C/c2cc3ccc(C)cc3nc2N2CCOCC2)cc1 | -7.89% |
| Cc1ccc(S(=O)(=O)c2cc3c(=O)n4ccccc4nc3n(C3CCCC3)c2=N)cc1 | 6.01% |
| CCOC(=O)C(=CNc1ccccc1N1CCOCC1)C(=O)OCC | -13% |
| N#CC1=C(SCC(=O)NCc2ccccc2)NC(=O)CC1c1ccco1 (stereo not shown) | 9.86% |
| CC1(C)CC(=O)C(=Cc2cn(-c3ccccc3)nc2-c2ccc(Cl)cc2)C(=O)C1 | 14.6% |
| CCOC(=O)C(NC(=O)CC(C)C)(Nc1sc2c(c1C(N)=O)CCCC2)C(F)(F)F (stereo not shown) | 14.4% |
| CCN(CC)S(=O)(=O)c1ccc2c(c1)nc(CCC(=O)OCC(=O)N1CCc3ccccc31)n2C | -16.4% |
| CCn1c(CC(=O)Nc2ccccc2)nnc1SCC(=O)N1CCOCC1 | 12.6% |
| Cc1cc(C)c(C)c(S(=O)(=O)N(C)C2CCN(C)CC2)c1C.Cl | -16.5% |
| CCOc1ccc(NC(=O)COc2coc(CN3CCc4ccccc4C3)cc2=O)cc1 | 4.27% |
| CCN(CC)S(=O)(=O)c1ccc2oc(C(=O)NC3CCCc4ccccc43)c(C)c2c1 (stereo not shown) | 2.13% |
| COc1ccc(C(=O)N2CCOC2CNC(=O)C(=O)NCc2ccc3c(c2)OCO3)cc1 (stereo not shown) | 1.53% |
| O=C(NCCSC1CCCCC1)c1ccccc1 | 3.36% |
| COc1ccccc1N1CCN(C(=O)CSc2nc(C)c(C)c(=O)[nH]2)CC1 | 14.8% |
| O=C(Nc1ncc2c(n1)-c1ccccc1OC2)c1ccccc1Cl | -8.91% |
| Cc1ccc(NC(=O)c2cc3nc(C)cc(C)n3n2)cc1 | -4.38% |
| COc1ccc(S(=O)(=O)N2CCCC2CNC(=O)C(=O)Nc2ccc(F)cc2)cc1 (stereo not shown) | -46.3% |
| O=C(OCC(=O)N1CCCC1=O)c1ccc(Cl)cc1[N+](=O)[O-] | -8.32% |
| Cc1nc2cc(NC(=O)N3CCCCC3)ccc2n1C | 4.54% |
| CN1CCN(C(=O)CSc2nc(-c3cccs3)cc(-c3cccs3)c2C#N)CC1 | -17.4% |
| COc1cc(Nc2cccc[n+]2C)cc(OC)c1OC.[I-] | 15.6% |
